US20180008672A1, “ANTI-ACTIVIN A ANTIBODIES AND METHODS OF USE THEREOF FOR TREATING PULMONARY ARTERIAL HYPERTENSION” (Regeneron Pharmaceuticals, Inc., priority 2016, published 2018)

Assays:
[1] = system: chronic hypoxia-induced pulmonary arterial hypertension mouse model; assay: 4 week chronic hypoxia-induced pulmonary arterial hypertension mouse model; format: in vivo, mouse (Taconic C57BL/6); details: normobaric hypoxia 4 weeks, 25 mg/kg SC 2x/week starting day 14; for Stroke Volume (Mean ± SEM), right ventricular: calculated from PA CSA and VTI; for Stroke Volume (Mean ± SEM), right ventricular / Right Ventricular cardiac output (Mean ± SEM): 25 mg/kg; for Right Ventricular cardiac output (Mean ± SEM): product of SV and heart rate
Source text: To evaluate the effect of anti-Activin A antibodies in pulmonary arterial hypertension, a 4 week chronic hypoxia-induced pulmonary arterial hypertension mouse model was used.
Eleven to fourteen week old Taconic C57BL/6 mice were used for the study. Mice were separated into treatment groups by weight such that starting body weights were similar among different groups. Cages were selected to either remain at ˜21% O2 (normobaric normoxia) or placed into 10% O2 (normobaric hypoxia) chamber (a modified 3′ Semi-Rigid Isolator unit, Charles River) that maintained low O2 levels with adjustment of N2 flow to a steady intake of room air.
As outlined in Table 3, mice were subcutaneously administered 25 mg/kg of REGN2477, (H4H10446P2), 25 mg/kg of an isotype control antibody, or 10 μL/kg of saline starting on day 14.
On the last day of each study, pulmonary artery size and right ventricular function and dimensions were assessed in each mouse using a high frequency ultrasound system (Vevo 2100, VisualSonics). For the assessment, mice were anesthetized (with 1.5% isoflurane at a rate of 1.0 cc/mL of medical grade air) and their temperature was monitored with a rectal temperature probe and held at approximately 37° C. with a heated platform (MouseMonitorS, Indus Instruments) and a warming lamp. Both brightness-mode (B-mode) and motion-mode (M-mode) imaging were used. B-mode imaging of the mouse heart in cross-section was used to determine pulmonary artery cross-sectional area (PA CSA) at the level of the pulmonary valve. […] was used to determine the pulsed wave velocity time integral (VTI), which is derived from the area under the curve of representative Doppler tracings of blood flow through the pulmonary artery. Right ventricular stroke volume (RV SV) was calculated from the product of PA CSA and VTI. Right ventricular cardiac output (RV CO) was calculated from the product of SV and heart rate (HR). M-mode imaging was used to determine right ventricular free wall (RVFW) thickness during diastole and systole. Animals were returned to their home cages before right ventricular pressure assessment.
Right ventricular pressure was subsequently assessed for all treatment groups. Mice were anesthetized with isoflurane and were kept at approximately 37° C. using a heated platform (Heated Hard Pad 1, Braintree Scientific) and circulating heated water pump (T/Pump Classic, Gaymar Industries). The neck area for each mouse was prepared for surgery by depilating over the right common Carotid artery and right Jugular vein. An incision was made and the right Jugular vein was isolated with care as to not damage the Carotid artery and/or the Vagus nerve. A piece of 5-0 silk suture was placed under the isolated Jugular vein to allow for retraction of the vessel cranially, then a 30-guage needle was used to introduce a hole into the Jugular vein. A pressure catheter (Micro-tip catheter transducer SPR-1000, Millar Instruments, Inc.) was inserted into the opening of the Jugular vein and advanced past the right atrium into the right ventricle. The catheter was connected to pressure/volume instrument (MPVS-300, Millar Instruments, Inc.) that measured heart rate as well as both diastolic and systolic right ventricular pressures. These parameters were digitally acquired using a data acquisition system (PowerLab 4/35, ADlnstruments). LabChart Pro 7.0 software (ADlnstruments) was used to analyze right ventricular pressures. Readings were quantified from a 60 second interval of the pressure tracing (following a 2 minute period of recording to allow for pressure stabilization). The parameters analyzed were right ventricular systolic pressures (RVSP), heart rate (HR) and rate of right ventricular pressure rise (dP/dt max).
Following completion of right ventricular pressure measurement, the catheter was removed and each animal was sacrificed. The abdomen was opened and blood was drawn from the Vena Cava for hematocrit assessment and serum collection. […]

[2] = system: rat model of pulmonary hypertension induced by monocrotaline; assay: rat model of pulmonary hypertension induced by monocrotaline; format: in vivo, rat (Sprague Dawley)
Protocol: To further evaluate the effect of anti-Activin A antibodies in pulmonary arterial hypertension, a rat model of pulmonary hypertension induced by monocrotaline was used.
Six to seven week old Sprague Dawley rats were used. Rats were separated into treatment groups such that body weights were similar among different groups. Rats were subcutaneously administered either 40 mg/kg of monocrotaline or 5 mL/kg of saline at day 0. At 14 days post injection, saline-injected rats were orally dosed with PEG 400 (at 50:50 v/v, Affymetrix Inc., #19957) at 5 mL/kg daily for two weeks, and monocrotaline-injected rats were separated into 5 groups with a group (n=9) orally dosed with PEG 400 at 5 mL/kg daily for two weeks, another group (n=12) orally administered macintentan at 30 mg/kg daily for two weeks, and three groups that were both orally dosed with PEG 400 at 5 mL/kg daily for two weeks and subcutaneously treated with either anti-Activin A antibodies, H4H10430P (n=9), H4H10446P2 (n=11), or an isotype control antibody (n=10) at 40 mg/kg twice a week for two weeks.
At day 27, pulmonary artery size and right ventricular function and dimensions of the rats were assessed using a high frequency ultrasound system (Vevo 2100, VisualSonics). For the assessment, rats were anesthetized (with 1.5% isoflurane at a rate of 1.0 cc/mL of medical grade air) and their temperature was monitored with a rectal temperature probe and held at approximately 37° C. with a heated platform (Vevo 2100, Visualsonics) and a warming lamp. Both brightness-mode (B-mode) and motion-mode (M-mode) imaging were used. B-mode imaging of the rat heart in cross-section was used to determine pulmonary artery cross-sectional area (PA CSA) at the level of the pulmonary valve. […] was used to determine the pulsed wave velocity time integral (VTI), which is derived from the area under the curve of representative Doppler tracings of blood flow through the pulmonary artery. Right ventricular stroke volume (RV SV) was calculated from the product of PA CSA and VTI. Right ventricular cardiac output (RV CO) was calculated from the product of SV and heart rate (HR). M-mode imaging was used to determine right ventricular free wall (RVFW) thickness during diastole and systole. […]
Right ventricular pressure was subsequently assessed for all treatment groups. […] The catheter was connected to pressure/volume instrument (MPVS-300, Millar Instruments, Inc.) that measured heart rate as well as both diastolic and systolic right ventricular pressures. […] Readings were quantified from a 60 second interval of the pressure tracing (following a 2 minute period of recording to allow for pressure stabilization). The parameters analyzed were RV diastolic and systolic pressures, heart rate and ventricular contractile function. […]

[3] = system: long-term rat monocrotaline in vivo model; assay: long-term rat monocrotaline model, survival; design: species or system rat (Sprague Dawley); details: monocrotaline 40 mg/kg SC day 0; therapy from two weeks post-monocrotaline for 5 weeks; antibodies 40 mg/kg SC 2x/wk, macitentan 30 mg/kg PO daily; n=10
Protocol: To evaluate the survival benefit of anti-Activin A antibody in a pulmonary arterial hypertension model, a long-term rat monocrotaline in vivo model was used.
Six-to-seven week old Sprague Dawley rats were used. Rats were separated into treatment groups such that body weights were similar among different groups. Rats were subcutaneously administered either 40 mg/kg of monocrotaline or 5 mL/kg of saline at day 0. At 14 days post-injection, saline-injected rats were subcutaneously treated with saline at 5 mL/kg, twice a week for 5 weeks, unless they died prematurely.
The monocrotaline-injected rats were separated into 4 groups. One group (n=10) was orally administered macitentan at 30 mg/kg daily. A second group (n=10) was subcutaneously administered saline at 5 mL/kg twice a week. A third group (n=10) was subcutaneously treated with either an isotype control antibody, H4H6334P. A fourth group (n=10) was subcutaneously treated with the anti-Activin A antibody, H4H10446P2, at 40 mg/kg twice a week. These monocrotaline-treated rats were started on therapy at two weeks post-monocrotaline and continued for 5 weeks, unless the animal died prematurely.
Animals were monitored twice a day for signs of morbidity or mortality. Based on literature searches, 5-8 weeks after monocrotaline injection is typically a time where morbidity and mortality are likely. […]

[4] = monocrotaline 40 mg/kg SC day 0, antibodies 40 mg/kg SC 2x/wk, macitentan 30 mg/kg PO daily from day 14 for two weeks, ultrasound day 27

B1: Isotype control antibody: isotype control antibody; called H4H6334P in Example 4, REGN1945 in the footnote of Table 7 (antibody, V domains shown)
VH: EVQLVESGGGLVKPGGSLRLSCAVSGFTFSIDWMIWVRQAPGTGLEWVGRIKRKTDGGTTDYAAPVKGRFTISRDDSKNTLYLQMNSLKTEDTAIYYCATGGFERVGQGTLVTVSS
VL: [in this place about 100 residues]LTFGGGTKVEIK
Question: Which results are given for B1?
Answer: PA CSA (Mean ± SEM) ([1]; B-mode ultrasound on last day): 1.213 ± 0.039 mm^2; Stroke Volume (Mean ± SEM), right ventricular [1]: 28.55 ± 2.14 µL; Stroke Volume (Mean ± SEM), right ventricular ([1]; listed as isotype control): 28.55 ± 2.14 µL; Hemocrit (Mean ± SEM) ([1]; end of study): 50.5 ± 1.0; Right Ventricular cardiac output (Mean ± SEM) [1]: 13.53 ± 0.84 mL/min; Right Ventricular cardiac output (Mean ± SEM) ([1]; listed as isotype control antibody): 13.53 ± 0.84 mL/min; Heart rate (Mean ± SEM) ([1]; ultrasound): 481.7 ± 20.5 beats/min; PA CSA (Ave ± SEM) [2, 4]: 7.192 ± 0.453%% mm^2; Right Ventricular cardiac output (Ave ± SEM) [2, 4]: 98.9 ± 7.8 mL/min; Stroke Volume (Ave ± SEM), right ventricular [2, 4]: 274.0 ± 25.9 µL; effect on PA CSA (in words) ([2]; monocrotaline-injected rats, FIG. 3A): showed a similar response; mortality (animals that died during the study) [3]: 80%
